Measured values reported in the supplement of paper PMC3334620.
In all, about 33,000 sequences were measured (“E-score (-0.5 to 0.5)”: median about -0.056, highest 2% from about 0.38 on). The list shows a part of the results.

Target: Stb4 (UniProt P50104)
Experiment: PBM E-score (8-mer binding enrichment) (E-score (-0.5 to 0.5)); higher = stronger / more preferred TF binding; most listed sequences are background and not binding sites
Settings: protein concentration: 200 nM; construct: GST-DNA-binding domain
Description: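 Universal 'all 10-mer' protein binding microarrays (Agilent AMADID 015681) probed with GST-tagged S. cerevisiae TFs (full-length or DBD) made by in vitro transcription/translation (PURExpress), about 100-200 nM. Bound TF was detected with fluorescent anti-GST. Each ungapped 8-mer (which stands for itself and its reverse complement) is scored by the PBM enrichment score (E-score), a modified Wilcoxon-Mann-Whitney statistic from -0.5 to +0.5, computed with the Universal PBM Analysis Suite. Scale: above 0.35 generally sequence-specific binding.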

| Sequence | PBM E-score |
| --- | --- |
| CGCAATAC | 0.0426 |
| CCCCATCG | 0.143 |
| ATACGGCC | 0.0364 |
| CGGACATA | 0.217 |
| GGTCGATA | 0.0179 |
| CGACTCCA | 0.0185 |
| GAGATGAC | -0.0667 |
| GCCAAATA | -0.14 |
| GTGGTGCA | -0.0162 |
| GCCGATCC | 0.363 |
| AACCAGAC | -0.233 |
| CCATCTGC | 0.0925 |
| GGATACTA | 0.266 |
| ACACAGGC | -0.16 |
| GAACGTTA | -0.00926 |
| AAGAGTGG | -0.179 |
| GGAACCAA | 0.196 |
| GATCCCCC | -0.0118 |
| CCGTCCAG | 0.0535 |
| CCGCGTAG | 0.0991 |
| TAACGCAA | -0.157 |
| GATGATGC | 0.0163 |
| GTGCCATA | -0.194 |
| GCTAAGCC | -0.0224 |
| CGCAACAC | -0.00156 |

| Sequence | PBM E-score |
| --- | --- |
| GCGCAACC | -0.146 |
| CATTACGG | 0.00852 |
| GGTCTAGA | -0.0983 |
| GCGCATAC | 0.0597 |
| CACGGTAA | 0.154 |
| CGCTAGCC | -0.0364 |
| CTCCTCAA | -0.119 |
| CCGATATA | 0.232 |
| GTTCCCAA | -0.009 |
| CTCCCCAA | -0.0153 |
| AATTATTA | 0.00691 |
| ATCTAAAG | -0.0451 |
| AGTTGCCG | 0.3 |
| CCGTTCAG | 0.18 |
| CTTAGGCC | -0.0865 |
| ACGTCTAA | -0.212 |
| CCTTTTCG | -0.00261 |
| ACTACTTA | -0.187 |
| TCCCGGGA | 0.409 |
| CTCTGGAA | -0.105 |
| ACAACAAA | -0.0382 |
| CCTCGGCA | 0.461 |
| GGCCAGAA | -0.0153 |
| CAGACGAA | 0.0157 |
| CGCTTCGA | 0.0358 |

| Sequence | PBM E-score |
| --- | --- |
| CGAGCAAA | 0.0293 |
| AAACCGCG | 0.147 |
| CCGAGATA | 0.405 |
| AGAAATCA | -0.0716 |
| CCCCTAGA | -0.421 |
| CCACACAC | 0.142 |
| CTCCGGAC | 0.285 |
| AACGCGCG | -0.00161 |
| ATGGAAAT | -0.00601 |
| GGCAGCGA | -0.0169 |
| GGGATACA | 0.191 |
| ACCGAGGC | 0.302 |
| GGTCTCGA | 0.0101 |
| GACGGTCA | -0.244 |
| AAGCACCG | 0.0356 |
| GCGCCTGA | -0.146 |
| CACTGGAC | 0.0415 |
| ATAGGGAT | -0.152 |
| GTCACAAC | 0.00653 |
| GCGAGGAC | -0.224 |
| CGACGGAA | 0.347 |
| CTTGCTTC | -0.172 |
| AGTTCATA | -0.0667 |
| CACCTGGG | -0.247 |
| AGTGATGG | -0.0275 |

| Sequence | PBM E-score |
| --- | --- |
| AGCCACGA | -0.159 |
| CCATCGAC | -0.155 |
| ATGGTAAC | -0.0572 |
| TAGAAAAA | 0.0911 |
| GAACGTCC | 0.141 |
| AACTATGA | -0.0574 |
| AGGCCATA | -0.164 |
| ACTTAGTG | -0.0923 |
| ATCGATAC | -0.193 |
| AGGATAAC | -0.159 |
| CTACGCAA | -0.116 |
| CCTAGCAG | -0.21 |
| GTTGGTTA | -0.111 |
| AGTTTACG | -0.0171 |
| AGTCTTAT | -0.0532 |
| CGCGGTCC | 0.145 |
| CATGCTTC | -0.123 |
| AAATGAAC | -0.14 |
| GACAGATA | -0.00079 |
| GTCATTAA | -0.0639 |
| CAGCTACG | -0.293 |
| GCCACGTA | -0.197 |
| CCCGCAGC | 0.207 |
| GGGAAATA | 0.157 |
| CTATCTGC | -0.057 |

| Sequence | PBM E-score |
| --- | --- |
| GGCAGTTA | -0.00874 |
| CAACGGCA | 0.121 |
| GATCGCAA | 0.00904 |
| CCGCGGCG | 0.202 |
| CCAGTGAA | -0.0757 |
| GACGCCTA | -0.153 |
| CAAAAGCC | 0.0286 |
| CGATTGTC | 0.0483 |
| CTGATCGA | -0.208 |
| AATACAGC | -0.112 |
| TCCCCAAA | -0.197 |
| ACTTCATC | -0.0629 |
| AGGTCGTG | -0.273 |
| GAAGGTAC | -0.153 |
| CACGCTGA | -0.26 |
| CAGCGCAG | -0.0654 |
| CAAGACCC | 0.0339 |
| AAGACTCG | 0.0658 |
| AGTTCACC | -0.0122 |
| GAGGCCAC | -0.0201 |
| CGTGATAA | -0.0309 |
| CCTCACAG | -0.0831 |
| GTTTGGTA | -0.0358 |
| ATTCTTCG | 0.0218 |
| AAAGCCTT | -0.122 |

| Sequence | PBM E-score |
| --- | --- |
| CTGCATAA | 0.0639 |
| CAATGATA | -0.262 |
| AGGCCACA | -0.253 |
| AGGTAATA | -0.0148 |
| GTGGCCCA | -0.13 |
| ATCCCTCG | 0.238 |
| AGTGTGCA | -0.13 |
| CAAGACGA | -0.085 |
| ACGTTGAT | -0.102 |
| CTGGCGGC | 0.139 |
| GTAGCGTA | 0.0406 |
| ATTCGATG | -0.148 |
| ATCGCTCA | -0.0805 |
| ATTTGAGC | -0.0256 |
| ACAGCCCA | -0.062 |
| CATAGGTA | -0.0802 |
| ATGACATA | -0.136 |
| CCGACCGG | 0.35 |
| CGATGCAA | 0.119 |
| AAATTGTG | -0.295 |
| AAGGCTGA | -0.192 |
| AAGAACAC | -0.0126 |
| ACCGAACT | 0.365 |
| CTGGTTTC | 0.0875 |
| AGCACAAC | 0.0479 |

| Sequence | PBM E-score |
| --- | --- |
| TCAATGGA | -0.173 |
| GGTCGTGA | -0.153 |
| ATACTTTG | -0.155 |
| GAGAACCC | 0.14 |
| AGATGCAG | -0.244 |
| AATTATCT | 0.0435 |
| CTCTTATA | -0.00872 |
| CAGTGCAC | -0.0135 |
| GACCCCAC | 0.0629 |
| ACCTGACC | -0.114 |
| AAAAACAC | -0.0299 |
| CCAGTGCC | -0.138 |
| ATTTTGCA | -0.103 |
| AGCCGTAT | 0.0974 |
| GACCGGCC | 0.184 |
| CCGCGCAC | 0.0141 |
| AATCAAAA | 0.0461 |
| GAGGCAGA | -0.19 |
| CAATTAAC | -0.0116 |
| CCCGCCGG | 0.252 |
| ACGTAGTC | -0.211 |
| ACGCAGCC | 0.023 |
| AAATTAGT | -0.165 |
| AAAAGCCG | 0.281 |
| GACAACAA | -0.223 |

| Sequence | PBM E-score |
| --- | --- |
| AGCGGAAG | 0.335 |
| AGAGATAT | -0.167 |
| AGTGAAGA | -0.212 |
| GAGTGCAC | 0.0722 |
| AATTTTCC | 0.327 |
| GGGAGCCC | -0.0552 |
| AACATTTA | 0.144 |
| AGCCATGA | -0.0457 |
| CAGATTAG | -0.195 |
| TAACTTCA | -0.143 |
| CTGTTGTA | -0.15 |
| AAAGAACA | -0.114 |
| CCTATAAA | -0.135 |
| CGGGAAAA | 0.359 |
| GCCGGCGA | 0.214 |
| CGTTTTCA | -0.0125 |
| GTGTTCGA | -0.176 |
| AAACGTCC | -0.126 |
| CCGCCCCG | 0.374 |
| ATAAAATA | -0.0366 |
| GATGTCGC | -0.0282 |
| GATTGGGA | -0.131 |
| CTCATACC | 0.00427 |
| CTGGTGGC | -0.167 |
| CGCTAGTA | 0.0633 |

| Sequence | PBM E-score |
| --- | --- |
| GCTTCACA | -0.0986 |
| AATCTCAG | -0.185 |
| ACTTCTTG | 0.0197 |
| GCGAGCAC | -0.135 |
| GCTCAAAC | 0.0586 |
| AGTCGCAT | -0.137 |
| ATTATGAA | -0.0797 |
| AGGTGGAC | -0.149 |
| GTTCCGCA | 0.293 |
| GAACGGTA | 0.0439 |
| ATCTTGAC | -0.215 |
| AATTGGCA | -0.174 |
| AGGGGTTC | -0.108 |
| CCAGTACA | -0.271 |
| CGTGAATC | -0.0256 |
| GGTCCAGA | -0.144 |
| AAGTAGAT | 0.0783 |
| ACGATGCG | -0.245 |
| CGCTCACG | 0.0904 |
